Experimental data taken from publication PMC11661359, “Structure guided functional analysis of the S. cerevisiae Mre11 complex” (Research Square, 2024).
Results are given in words; binding and its absence hold for the method and conditions named. Some results given as binding are weak or reduced against the parent protein; the word gives no strength.

Tests used:
[1] = biological target: S. cerevisiae Rad50-E1235Q (R^EQ of the purified MR^EQ complex) (S. cerevisiae) (UniProt P12753); assay: cryo-EM structure; Apo MR^EQ complex, without dsDNA (see Fig. S2); both purified
[2] = biological target: S. cerevisiae Rad50-E1235Q (R^EQ of the purified MR^EQ complex) (S. cerevisiae) (UniProt P12753); assay: cryo-EM structure; purified MR^EQ incubated with a 83-mer dsDNA in the presence of ATP, MgCl2 and MnCl2; 3.2 Å; both purified

binding [1]: binds | binding [2]: binds
B1: S. cerevisiae Rad50-E1235Q (R^EQ of the purified MR^EQ complex) (enzyme, UniProt P12753 1-1312)
chain: MSAIYKLSIQGIRSFDSNDRETIEFGKPLTLIVGMNGSGKTTIIECLKYATTGDLPPNSKGGVFIHDPKITGEKDIRAQVKLAFTSANGLNMIVTRNIQLLMKKTTTTFKTLEGQLVAINNSGDRSTLSTRSLELDAQVPLYLGVPKAILEYVIFCHQEDSLWPLSEPSNLKKKFDEIFQAMKFTKALDNLKSIKKDMSVDIKLLKQSVEHLKLDKDRSKAMKLNIHQLQTKIDQYNEEVSEIESQLNEITEKSDKLFKSNQDFQKILSKVENLKNTKLSISDQVKRLSNSIDILDLSKPDLQNLLANFSKVLMDKNNQLRDLETDISSLKDRQSSLQSLSNSLIRRQGELEAGKETYEKNRNHLSSLKEAFQHKFQGLSNIENSDMAQVNHEMSQFKAFISQDLTDTIDQFAKDIQLKETNLSDLIKSITVDSQNLEYNKKDRSKLIHDSEELAEKLKSFKSLSTQDSLNHELENLKTYKEKLQSWESENIIPKLNQKIEEKNNEMIILENQIEKFQDRIMKTNQQADLYAKLGLIKKSINTKLDELQKITEKLQNDSRIRQVFPLTQEFQRADLEMDFQKLFINMQKNIAINNKKMHELDRRYTNALYNLNTIEKDLQDNQKSKEKVIQLLSENLPEDCTIDEYNDVLEETELSYKTALENLKMHQTTLEFNRKALEIAERDSCCYLCSRKFENESFKSKLLQELKTKTDANFEKTLKDTVQNEKEYLHSLRLLEKHIITLNSINEKIDNSQKCLEKAKEETKTSKSKLDELEVDSTKLKDEKELAESEIRPLIEKFTYLEKELKDLENSSKTISEELSIYNTSEDGIQTVDELRDQQRKMNDSLRELRKTISDLQMEKDEKVRENSRMINLIKEKELTVSEIESSLTQKQNIDDSIRSKRENINDIDSRVKELEARIISLKNKKDEAQSVLDKVKNERDIQVRNKQKTVADINRLIDRFQTIYNEVVDFEAKGFDELQTTIKELELNKAQMLELKEQLDLKSNEVNEEKRKLADSNNEEKNLKQNLELIELKSQLQHIESEISRLDVQNAEAERDKYQEESLRLRTRFEKLSSENAGKLGEMKQLQNQIDSLTHQLRTDYKDIEKNYHKEWVELQTRSFVTDDIDVYSKALDSAIMKYHGLKMQDINRIIDELWKRTYSGTDIDTIKIRSDEVSSTVKGKSYNYRVVMYKQDVELDMRGRCSAGQKVLASIIIRLALSETFGANCGVIALDQPTTNLDEENIESLAKSLHNIINMRRHQKNFQLIVITHDEKFLGHMNAAAFTDHFFKVKRDDRQKSQIEWVDINRVTY
